Assay results as given in the RNAGym collection of RNA variant scans (doi:10.7554/elife.90254).
Read counts are not given, so values of variants with three or more changes are uncertain.

B1: LINE1-full (parent)
chain: UACGUAGGUGGUUUUCCCCUGAUAGUGCUAAGGGGGCCUGGAAGUUUGGACUGGGCAGAGCUCAACACAGCGUGGCAAAGUGGCUGUGGCUAGACUGCCUCUCUGGAUUCCUCGUCACUCAGCAGGGCAUCUCUGAGAGAAAUGCC

Variants of: B1
Assay: self-cleavage, relative activity (ratio to wild type); higher = more cleavage; in vitro, sequencing; the parent is a self-cleaving ribozyme

Row | Variant | self-cleavage
1 | UACGUAGGUGGUUCUCCCCUGAUAGUGCUAAGGGGGCCUGGAAGUUAGGACUGGGCAGAGCUCAACACAGCGUGGCAAAGUGGCUGUGGCUAGACUGCCUCUCUGGAUUCCUCGUCACUCAGCGGGGCAUCUCUGAGAGAAAUGCC [U14C U47A A124G] | 1.12
2 | UACGUAGGUGGUUUUCCCCUGAUAGUGCUAAGGGGGCCUGGAAGUUUGGACUGGGCAGAGCUCAACACAGCGUGGCUAAGUGGCUGUGGCUAGACUGCCUCUCUGGAUACCUCGUCACUCAGCAGGGCAUCCCUGGGAGAAAUGCC [A77U U109A U132C A136G] | 1.01
3 | UACGUAGGUGGUUUUCCCCUGAUAGUGCUAAGGGGGCCUGGAAGUUUGGACUGGGCAGAGCUCAACACAGCGUGGCAAAGUGGCUGUGGUUAGACUGCCUCUCUGGAUUCCUCGGCACUCAGCAGGGCAUCUCUGAGAGAGAUGCC [C90U U115G A141G] | 0.04
4 | UACGUAGGCGGUUUUCCCCUGAUAGUGCUAAGGGGGCCUGGGAGUUUGGACUGGGCAGAGCUCAACACAGCGUGGCAAAGUGGCUGUGGCUAGACUGUCUCUCUGGAUUCCUCGUCACUCAGCAGGGCAUCUCUGAGAGAAAUGCC [U9C A42G C98U] | 0.6
5 | UACGUAGGUGGUUUCCCCCUGAUAGUGCUAAGGGGGCCUGGAAGUCUGGACUGGGCAGAGCUCAACACAGCGUGGCAAAGUGUCUGUGGCUAGACUGCCUCUCUGGAUUCCUCGUCACUCAGCAGGGCAUCUCCGAGAGAAAUGCC [U15C U46C G83U U134C] | 1.07
6 | UACGUAGGUGGUUUUCCCCUGAUAGUGCUAAGGGGGCCUGGAAGUUUGGACUGGGCAGAGCCCAACACAGCGAGGCAAAGUGGCUGUGGCAAGACUGCCUCUCUGGAUUCCUCGUCACUCAGCAGGGCAUCUCUGAGAGAAAUGCC [U62C U73A U91A] | 0.03
7 | UACGUAGGUGGUUUUCCCCUGAUAGAGCUAAGGGGGCCUGGAAGUUUAGACUGGGCAGAGCUCAACACAGCGUGGCAAAGUGGCUGUGGCUAGACUGCCUCUCUGGAUUCCUCGUCACUCAGCAGGGCUUCUCUGAGAGAAAUGCC [U26A G48A A129U] | 1.24
8 | UGCGUAGGUGGUUUUCCCCUGAUAGUGCUAAGGGGGCCUGGAAGUCUGGACUGGGCAGAGCUCAACACAGCGUGCCAAAGUGGCUGUGGCUAGACUGCCUCUCUGGAUUCCUCGUCACUCAGCAGGGCAUCUCUGAGAGAAAUGCC [A2G U46C G75C] | 0.6
9 | UACGUAGGUGGUUUUCCCCUGAUAGUGCUAAGGGGGCCUGGGAGUUUGGACUGGGCAGAGCUCAACGCAGCGUGGCAAAGUGGCCGUGGCUAGACUGCCUCUCUGGAUUCCUCGUCACUCAGCAGGGCAUCUCUGAGAGAGAUGCC [A42G A67G U85C A141G] | 0.61
10 | UACGUAGGUGGUUUUCCCCUGAUAGUGCUAAGGGGGCCUGGAAGUUUGGACUGGGCAGAGCUCAACACAGCGUGGCAAAGAUGCUGUGGCUAUACUGCCUCUCUGGAUUCCUCGUCACUCAGCAGGGCAUCUCUGAGAGAAAUGCC [U81A G82U G93U] | 0.04
11 | UACGUGGGCGGUUUUCCCCUGAUAGUGCUAAGGGGGCCUGGAAGAUUGGACUGGGCAGAGCUCAACACAGCGUGGCAAAGUGGCUGUGGCUAGACUGCCUCUCUGGAUACCUCGUCACUCAGCAGGGCAUCUCUGAGAGAAGUGCC [A6G U9C U45A U109A A142G] | 1.13
12 | UACGUAGGAGGUUUUCCCCUGAUAGUGCUAAGGGUGCCUGGAAGUUUGGACUGGGCAGAGCUCAACACAGCGUGGCAAAGUGGCUGUGGCUAGACUGCCUCUCUGGAUUCCUCGUCACUCAGCAGGGCAUCUCUGAGGGAAAUGCC [U9A G35U A138G] | 1.23
13 | UACGUAGGUGGUUUUCCCCUGAUAGUGCUAAGGGGGCCUGGAAGUUUGGACUGGGCAGAGCUCAACACAGCGUAGCAAAGUGGCUGUGGCUAGACUGCCUCGCUGGAUUCCUCGUCACUCAGCAGGGCAUCUCGGAGAGAAAUGCC [G74A U102G U134G] | 1.36
14 | UACGUAGGUGGUUUUCCCCUGAUAGUGCUAAGGGGGCCUGGAAGUUUGGACUGGGCAGAGCUCAACACAGCGUGGCAAAGUGGCUGUGGCUAGACUGCCUCUCCCGAUUCCUCGUCACUCAGCAGGGCAUCACUGAGAGAAAUGCC [U104C G105C U132A] | 1.23
15 | UACGUAGGUGGUUCUCCCCUGAUAGUGCUAAGGGGGCCUGGAAGUUUGGACUGGGCAGUGCUCGACACAGCGUGGCGAAGUGGCUGUGGCUAGACUGCCUCUCUGGAUUCCUCGUCACUCAGCAGGGCAUCUCAAAGAGAAAUGCC [U14C A59U A64G A77G U134A G135A] | 0
16 | UACGUAGGUGGUUUUCCCCUGAUAGUGCUAAGGGGGCCUGGAAGUUUGGACUGGGCAGAGCUCAACACAGCGUGGCAGAGUGGCUGCGGCUAGACUGCCUCUCUGGAUUCCUCGUCACUCAGCAAGGCAUCUCUGAGAGAAAUGCC [A78G U87C G125A] | 0.15
17 | UACGUAGGUGGGUUUCCCCUGGUAGUGCUAAGGGGGCCUGGAAGUUUGGACUGGGCAGAGCUCAACACAGCGUGGCAAAGUGGCUGUGGCUAGACUGCCUCUCUGGAUUCCUCGUCACUCAGCAGGGCACCUCUGAGAGAAAAGCU [U12G A22G U130C U143A C146U] | 1.02
18 | UACGUAGGUGGUCUUCCCCUGAUAGUGCUAAGGGGGCCUGGAAGCUUGGACUGGGCAGAGCUCAACACAGCGUGGCAAAAUGGCCGUGGCUAGACUGCCUCUCUGGAUUCCUCGUCACUCAGCAGGGCAUCUCUGAGAGAAAUGCC [U13C U45C G80A U85C] | 0.34
19 | UACGUAGGUGGUUUUCCCCUGAUAGUGCUAAGGGGGCCUGGAAGUUUGGACUGGGCAGAGCUCAUCACAGCGUGGCAUAGUGGCUGUGGCUAGACUGCCCCUCUGGAUUCCCCGUCACUCAGCAGGGCAUCUCUGAGAGGAAUGCC [A65U A78U U100C U112C A140G] | 0.54
